The IC50 comes from the fitted curve, where viability falls to half of the control; where the fit passes the top or lowest dose, that dose stands as a limit. AUC sums up the same curve from the lowest dose to the 256-fold higher top dose; the more sensitive the line, the further below 1. For some assays here: A top dose marked as inferred was derived from the fitted curves, not read from the paper. For some assays here: An entry number marks a drug with two screens in the source, which often give different values.
Experiments:
Test in all cases: Viability of human cancer cell lines after 72 h of drug (GDSC screen)
Thapsigargin = compound: C/C=C(/C)C(=O)O[C@H]1C(C)=C2[C@H]([C@@H]1OC(=O)CCCCCCC)[C@@](C)(OC(C)=O)C[C@H](OC(=O)CCC)[C@@]1(O)[C@H]2OC(=O)[C@@]1(C)O [Thapsigargin]; conditions: top dose 0.512 µM; top dose inferred
Method: (§1)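 Human cancer cell lines in 384-well plates, medium with 10% serum, drug for 72 h over a 256-fold dose range (nine 2-fold or five 4-fold steps up to the top dose). Adherent lines were fixed and stained with the nucleic acid dye Syto60, suspension lines read with resazurin; signal relative to control wells, capped at 0 and 100%. One two-parameter sigmoid per drug and line, fitted in a mixed model over all curves with the slope shared within a line.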

QL-X-138 = compound: C=CC(=O)Nc1cc(-n2c(=O)ccc3cnc4ccc(-c5cn[nH]c5)cc4c32)ccc1C [QL-X-138]; conditions: top dose 10.24 µM; top dose inferred
Method: as §1

GSK269962A = compound: CCn1c(-c2nonc2N)nc2cnc(Oc3cccc(NC(=O)c4ccc(OCCN5CCOCC5)cc4)c3)cc21 [GSK269962A]; conditions: top dose inferred
Method: as §1

MPS-1-IN-1 = compound: COc1cc(N2CCC(O)CC2)ccc1Nc1cc(Nc2ccccc2S(=O)(=O)C(C)C)c2cc[nH]c2n1 [MPS-1-IN-1]; conditions: top dose 20 µM; top dose inferred
Method: as §1

(5Z)-7-Oxozeaenol = compound: COc1cc(O)c2c(c1)/C=C/C[C@H](O)[C@H](O)C(=O)/C=C\C[C@H](C)OC2=O [(5Z)-7-Oxozeaenol]; conditions: top dose 10 µM; top dose inferred
Method: as §1

CP466722 = compound: COc1cc2ncnc(-n3nc(-c4ccccn4)nc3N)c2cc1OC [CP466722]; conditions: top dose 16 µM; top dose inferred
Method: as §1

Zibotentan = compound: COc1nc(C)cnc1NS(=O)(=O)c1cccnc1-c1ccc(-c2nnco2)cc1 [Zibotentan]; conditions: top dose 20 µM; top dose inferred
Method: as §1

ABT-888 = compound: C[C@]1(c2nc3c(C(N)=O)cccc3[nH]2)CCCN1 [ABT-888]; conditions: top dose 5 µM; top dose inferred
Method: as §1

CMK = compound: Cc1ccc(-c2c(C(=O)CCl)n(CCCO)c3ncnc(N)c23)cc1 [CMK]; conditions: top dose 4 µM; top dose inferred
Method: as §1

ABT-869 = compound: Cc1ccc(F)c(NC(=O)Nc2ccc(-c3cccc4[nH]nc(N)c34)cc2)c1 [ABT-869]; conditions: top dose 1.024 µM; top dose inferred
Method: as §1

CHIR-99021 = compound: Cc1cnc(-c2cnc(NCCNc3ccc(C#N)cn3)nc2-c2ccc(Cl)cc2Cl)[nH]1 [CHIR-99021]
Method: as §1

KU-55933 = compound: O=c1cc(-c2cccc3c2Sc2ccccc2S3)oc(N2CCOCC2)c1 [KU-55933]; conditions: top dose 10 µM
Method: as §1

[1] = top dose 2.5 µM, screen: GDSC drug entry 127
[2] = top dose 5 µM, screen: GDSC drug entry 1192
[3] = top dose 2.56 µM, screen: GDSC drug entry 154
[4] = top dose 10 µM, screen: GDSC drug entry 1241, top dose inferred

Cell Line	AUC (Thapsigargin)	IC50 (Thapsigargin) [nM]	AUC (QL-X-138)	IC50 (QL-X-138) [nM]	AUC (GSK269962A; [1])	IC50 (GSK269962A; [1]) [nM]	AUC (GSK269962A; [2])	IC50 (GSK269962A; [2]) [nM]	AUC (MPS-1-IN-1)	IC50 (MPS-1-IN-1) [nM]	AUC ((5Z)-7-Oxozeaenol)	IC50 ((5Z)-7-Oxozeaenol) [nM]	AUC (CP466722)	IC50 (CP466722) [nM]	AUC (Zibotentan)	IC50 (Zibotentan) [nM]	AUC (ABT-888)	IC50 (ABT-888) [nM]	AUC (CMK)	IC50 (CMK) [nM]	AUC (ABT-869)	IC50 (ABT-869) [nM]	AUC (CHIR-99021; [3])	IC50 (CHIR-99021; [3]) [nM]	AUC (CHIR-99021; [4])	IC50 (CHIR-99021; [4]) [nM]	AUC (KU-55933)	IC50 (KU-55933) [nM]
BB65-RCC (kidney, adherent)	0.24	4.95	0.819	7010	0.956	> 2500	0.868	> 5000	0.98	> 20000	0.694	2390	0.903	> 16000	0.983	> 20000	0.946	> 5000	0.855	3970	0.983	> 1020	0.903	> 2560	0.832	7780		
HT-144 (melanoma, adherent)	0.17	2.73	0.978	> 10200	0.885	> 2500	0.885	> 5000	0.959	> 20000	0.232	93.3	0.978	> 16000	0.982	> 20000			0.777	1800	0.974	> 1020	0.964	> 2560	0.851	9030	0.963	> 10000
JAR (urogenital system, adherent)	0.986	> 512	0.777	4010	0.937	> 2500	0.761	1740	0.968	> 20000	0.695	2180	0.66	2760	0.986	> 20000			0.887	> 4000	0.988	> 1020	0.988	> 2560	0.909	> 10000	0.977	> 10000
KASUMI-1 (acute myeloid leukaemia, suspension)			0.436	428	0.985	> 2500	0.485	284			0.41	353	0.263	210			0.97	> 5000	0.918	> 4000	0.292	16.5	0.959	> 2560	0.842	7080		
KG-1 (acute myeloid leukaemia, suspension)	0.624		0.572	982	0.955	> 2500	0.812	2330	0.923	> 20000	0.451	467	0.675	2900	0.99	> 20000			0.974	> 4000	0.909	> 1020	0.99	> 2560	0.989	> 10000	0.977	> 10000
LB996-RCC (kidney, adherent)	0.51	34.2	0.965	> 10200	0.9	> 2500	0.766	2130	0.981	> 20000	0.749	3710	0.967	> 16000	0.983	> 20000			0.981	> 4000	0.976	> 1020	0.912	> 2560	0.738	3390	0.979	> 10000
LC-2-ad (lung adenocarcinoma, adherent)	0.207	4.27	0.706	2480	0.97	> 2500	0.911	> 5000	0.827	12700	0.841	7230	0.691	3470	0.973	> 20000			0.741	1250	0.948	> 1020	0.985	> 2560	0.928	> 10000	0.953	> 10000
LNCaP-Clone-FGC (prostate, adherent)	0.526	38	0.463	500	0.983	> 2500	0.933	> 5000	0.932	> 20000	0.851	9380	0.762	6480	0.947	> 20000			0.962	> 4000	0.958	> 1020	0.978	> 2560	0.959	> 10000	0.984	> 10000
LOXIMVI (melanoma, semi-adherent)	0.184	4.18	0.857	6940	0.968	> 2500	0.805	2200	0.912	> 20000	0.188	84	0.899	> 16000	0.989	> 20000			0.895	3930	0.987	> 1020	0.717	608	0.966	> 10000	0.953	> 10000
MY-M12 (leukaemia, suspension)			0.282	141	0.47	128			0.836	15800			0.571	1600	0.967	> 20000	0.981	> 5000	0.83	2960	0.98	> 1020	0.862	> 2560			0.957	> 10000
MZ7-mel (melanoma, adherent)	0.448	22.9	0.968	> 10200	0.987	> 2500	0.985	> 5000	0.933	> 20000	0.19	71.2	0.986	> 16000	0.986	> 20000			0.893	> 4000	0.98	> 1020	0.966	> 2560	0.985	> 10000	0.968	> 10000
NB7 (neuroblastoma, adherent)	0.118	< 2	0.349	238	0.96	> 2500	0.929	> 5000	0.903	> 20000	0.92	> 10000	0.826	10300	0.986	> 20000			0.944	> 4000	0.981	> 1020	0.986	> 2560	0.908	> 10000	0.984	> 10000
NCI-H1355 (lung adenocarcinoma, adherent)	0.287	6.02	0.94	> 10200	0.889	> 2500	0.841	> 5000	0.968	> 20000	0.755	4850	0.845	> 16000	0.978	> 20000			0.89	> 4000	0.974	> 1020	0.972	> 2560	0.972	> 10000	0.915	> 10000
RS4-11 (leukaemia, suspension)	0.162	3.36	0.333	230	0.975	> 2500	0.931	> 5000	0.689	4010	0.79	4050	0.611	1970	0.973	> 20000			0.976	> 4000	0.989	> 1020	0.865	1940	0.919	> 10000	0.875	8400
SCC-15 (head and neck, adherent)	0.341	9.89	0.812	7980			0.893	> 5000	0.916	> 20000	0.703	2870	0.815	12900	0.98	> 20000			0.899	> 4000	0.977	> 1020	0.98	> 2560	0.978	> 10000	0.928	> 10000
SU-DHL-8 (B-cell lymphoma, suspension)	0.231	5.65	0.256	136	0.565	232	0.951	> 5000	0.827	11100	0.72	2500	0.649	2510	0.97	> 20000			0.716	971	0.987	> 1020	0.988	> 2560	0.981	> 10000	0.988	> 10000
TC-71 (Ewing sarcoma, adherent)	0.79	186	0.619	1280	0.963	> 2500	0.912	> 5000	0.724	4730	0.68	1800	0.717	3610	0.987	> 20000			0.991	> 4000	0.992	> 1020	0.99	> 2560	0.964	> 10000	0.981	> 10000
TE-10 (oesophagus, adherent)	0.197	4.14	0.863	8570	0.951	> 2500	0.832	3100	0.929	> 20000	0.604	1200	0.78	6430	0.988	> 20000			0.891	> 4000	0.983	> 1020	0.984	> 2560	0.981	> 10000	0.983	> 10000
THP-1 (acute myeloid leukaemia, suspension)	0.436	21.7	0.516	705	0.982	> 2500	0.964	> 5000	0.841	12000	0.903	> 10000	0.693	3270	0.986	> 20000			0.975	> 4000	0.964	> 1020	0.989	> 2560	0.99	> 10000	0.976	> 10000

From the supplement of paper PMC4967469
